Experimental data reported in the supplement of paper PMC8728848.
Some of the results follow.

Columns and labels:
Test in all cases: glycan array binding signal (z-score within array); higher = stronger binding
Conditions in all cases: glycan notation: IUPAC condensed, linker removed
[1] = target: Neu5Ac(a2-3)Gal(b1-4)GlcNAc(b1-3)Gal(b1-4)GlcNAc(b1-3)Gal(b1-4)GlcNAc
Method in brief: (§1)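 From the Consortium for Functional Glycomics database, 3228 arrays were curated, keeping only those whose protein sequence was available. Binding is given as a within-array Z-score averaged across arrays sharing a protein sequence and across linkers. Negative Z-scores can be read as non-binding.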

[2] = target: Neu5Ac(a2-3)Gal(b1-4)GlcNAc(b1-3)Gal(b1-4)GlcNAc(b1-3)Gal(b1-4)GlcNAc(b1-2)Man(a1-3)[Neu5Ac(a2-3)Gal(b1-4)GlcNAc(b1-3)Gal(b1-4)GlcNAc(b1-3)Gal(b1-4)GlcNAc(b1-2)Man(a1-6)]GalNAc
Method in brief: as §1

[3] = target: Neu5Ac(a2-3)Gal(b1-4)GlcNAc(b1-3)Gal(b1-4)GlcNAc(b1-3)GalNAc
Method in brief: as §1

[4] = target: Neu5Ac(a2-3)Gal(b1-4)GlcNAc(b1-3)Gal(b1-4)GlcNAc(b1-3)[Neu5Ac(a2-3)Gal(b1-4)GlcNAc(b1-3)Gal(b1-4)GlcNAc(b1-6)]GalNAc
Method in brief: as §1

[5] = target: Neu5Ac(a2-3)Gal(b1-4)GlcNAc(b1-3)Gal(b1-4)GlcNAc(b1-6)[Gal(b1-3)]GalNAc
Method in brief: as §1

[6] = target: Neu5Ac(a2-3)Gal(b1-4)GlcNAc(b1-3)Gal(b1-4)[Fuc(a1-3)]GlcNAc
Method in brief: as §1

[7] = target: Neu5Ac(a2-3)Gal(b1-4)GlcNAc(b1-3)GalNAc
Method in brief: as §1

[8] = target: Neu5Ac(a2-3)Gal(b1-4)GlcNAc(b1-3)[Neu5Ac(a2-3)Gal(b1-4)GlcNAc(b1-6)]GalNAc
Method in brief: as §1

[9] = target: Neu5Ac(a2-3)Gal(b1-4)GlcNAc(b1-6)GalNAc
Method in brief: as §1

[10] = target: Neu5Ac(a2-3)Gal(b1-4)GlcNAc(b1-6)[Gal(b1-3)]GalNAc
Method in brief: as §1

[11] = target: Neu5Ac(a2-3)Gal(b1-4)GlcNAc(b1-6)[Neu5Ac(a2-3)Gal(b1-3)]GalNAc
Method in brief: as §1

[12] = target: Neu5Ac(a2-3)Gal(b1-4)GlcNAc6S
Method in brief: as §1

[13] = target: Neu5Ac(a2-3)Gal(b1-4)[Fuc(a1-3)]GlcNAc
Method in brief: as §1

[14] = target: Neu5Ac(a2-3)Gal(b1-4)[Fuc(a1-3)]GlcNAc(b1-2)Man
Method in brief: as §1

[15] = target: Neu5Ac(a2-3)Gal(b1-4)[Fuc(a1-3)]GlcNAc(b1-3)Gal
Method in brief: as §1

[16] = target: Neu5Ac(a2-3)Gal(b1-4)[Fuc(a1-3)]GlcNAc(b1-3)Gal(b1-4)GlcNAc
Method in brief: as §1

[17] = target: Neu5Ac(a2-3)Gal(b1-4)[Fuc(a1-3)]GlcNAc(b1-3)Gal(b1-4)[Fuc(a1-3)]GlcNAc(b1-3)Gal(b1-4)[Fuc(a1-3)]GlcNAc
Method in brief: as §1

[18] = target: Neu5Ac(a2-3)Gal(b1-4)[Fuc(a1-3)]GlcNAc(b1-3)GalNAc
Method in brief: as §1

[19] = target: Neu5Ac(a2-3)Gal(b1-4)[Fuc(a1-3)]GlcNAc(b1-6)[Gal(b1-3)]GalNAc
Method in brief: as §1

[20] = target: Neu5Ac(a2-3)Gal(b1-4)[Fuc(a1-3)]GlcNAc(b1-6)[Neu5Ac(a2-3)Gal(b1-3)]GalNAc
Method in brief: as §1

[21] = target: Neu5Ac(a2-3)Gal(b1-4)[Fuc(a1-3)]GlcNAc6S
Method in brief: as §1

[22] = target: Neu5Ac(a2-3)Gal6S(b1-4)GlcNAc
Method in brief: as §1

[23] = target: Neu5Ac(a2-3)Gal6S(b1-4)[Fuc(a1-3)]GlcNAc
Method in brief: as §1

B1: rEtpA (Escherichia coli) (protein)
chain: MNRIYKLKFDKRRNELVVVSEITTGVGNAKATGSVEGEKSPRRGVRAMALSLLSGMMIMAHPAMSANLPTGGQIVAGSGSIQTPSGNQMNIHQNSQNMVANWNSFDIGKGNTVQFDQPSSSAVALNRVVGGGESQIMGNLKANGQVFLVNPNGVLFGEGASVSTSGFVASTRDIKNDDFMNRRYTFSGGQKAGAAIVNQGELTTNAGGYIVLAADRVSNSGTIRTPGGKTVLAASERITLQLDNGGLMSVQVTGDVVNALVENRGLVSARDGQVYLTALGRGMLMNTVLNVSGVVEASGMHRQDGNIVLDGGDSGVVHLSGTLQADNASGQGGKVVVQGKNILLDKGSNITATGGQGGGEVYVGGGWQGKDSNIRNADKVVMQGGARIDVSATQQGNGGTAVLWSDSYTNFHGQISAKGGETGGNGGRVETSSHGNLQAFGTVSASAKKGKAGNWLLDSADITIVNGSNVSKTETTQSPPHTQFAPTAAGSAVSNTSINNRLNNGTSVTILTHRTRTGTAQGGNITVNAAINKSNGSDVNLTLQAGGNITVNNSITSTEGKLNVNLSGARTSNGSITISNNANITTNGGDITVGTTNTSNRVNISINNTTLNASNGNIQLTGTGTDSGILFAGNNRLTASNIALTGNSTSGNAINLTGTATLNATNNITLTGSSTSGNAINLKGNNTLTASNITLTGESTSGNAINLTDTTGTTTLNATNNITMQGTRVQIKHSNITAGNFALNATVAGSEISNTTLTATNNINLAAKTNSASSGVYLKDARITSTNGSITANGTATANGKATHLDGNVTLNASNGRIKLTGNGHGSASGILFAGNNRLTASNIALTGNSTSGNAINLTGTATLNATNDITLTGSSTSGNAINLTGTATLNATNNITLTGSSTSGNAINLKGNNTLTASNITLTGESTSGNAINLTDTTGTTTLNATNNITMQGTRVQIKHSNITAGNFALNATVAGSEISNTTLTATNNINLAAKTNSASSGVYLKDARITSTNGSITANGTATANGKATHLDGNVTLNASNGRIKLTGNGHGSASGILFAGNNRLTASNIALTGNSTSGNAINLTGTATLNATNDITLTGSSTSGNAINLTGTATLNATNNITLTGSSTSGNAINLKGNNTLTASNITLTGESTSGNAINLTDTTGTTTLNATNNITMQGTRVQIKHSNITAGNFALNATVAGSEISNTTLTATNNINLAAKTNSASSGVYLKDARITSTNGSITANGTATANGKATHLDGNVTLNASNGRIKLTGNGHGSASGILFAGNNRLTASNIALTGNSTSGNAINLTGTATLNATNDITLTGSSTSGNAINLTGTATLNATNNITLTGSSTSGNAINLKGNNTLTASNITLTGESTSGNAINLTDTTGTTTLNATNNITMQGTRVQIKHSNITAGNFALNATVAGSEISNTTLTATNNINLAAKTNSASSGVYLKDARITSTNGSITTNGTATANGKATHLDGNVTLNASNGRIKLTGNGHGSASGILFAGNNRLTASNIALTGNSTSGNAINLTGTATLNATNDITLTGSSTSGNAINLTGTATLNATNNITLTGSSTSGNAINLKGNNTLTASNITLTGESTSGNAINLTDTTGTTTLNATNNITMQGTRVQIKHSNITAGNFALNATVAGSEISNTTLTATNNINLAAKTNSASSGVYLKDARITSTNGSITANGTAPANDNATYLDGNVTLNASNGSIKLTGNGNGSTSGILFAGNNTLTASNITLTGNSEVYWQKLGPEQKLISEEDLNSAVDHHHHHH
[1]
  glycan array binding signal (z-score): -0.401
[2]
  glycan array binding signal (z-score): -0.151
[3]
  glycan array binding signal (z-score): -0.38
[4]
  glycan array binding signal (z-score): -0.371
[5]
  glycan array binding signal (z-score): -0.423
[6]
  glycan array binding signal (z-score): -0.434
[7]
  glycan array binding signal (z-score): 0.379
[8]
  glycan array binding signal (z-score): -0.336
[9]
  glycan array binding signal (z-score): -0.357
[10]
  glycan array binding signal (z-score): -0.372
[11]
  glycan array binding signal (z-score): -0.389
[12]
  glycan array binding signal (z-score): -0.347
[13]
  glycan array binding signal (z-score): -0.389
[14]
  glycan array binding signal (z-score): -0.312
[15]
  glycan array binding signal (z-score): -0.332
[16]
  glycan array binding signal (z-score): -0.431
[17]
  glycan array binding signal (z-score): -0.322
[18]
  glycan array binding signal (z-score): 0.058
[19]
  glycan array binding signal (z-score): -0.264
[20]
  glycan array binding signal (z-score): -0.011
[21]
  glycan array binding signal (z-score): -0.018
[22]
  glycan array binding signal (z-score): 0.188
[23]
  glycan array binding signal (z-score): 0.519
